Laboratory results taken from PubChem BioAssay AID1346428 (National Center for Advancing Translational Sciences (NCATS), 2018).
The whole screen tested about 48,000 compounds, of which about 1,200 (2.5%) were called active. Roughly 2% stayed inconclusive and do not appear here.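 Rule for the calls: active = activation of at least 60% and not above a set upper limit (about 1 call in 100 departs from these limits); inconclusive = activation of 40% to 60%, or above that upper limit; inactive = activation under 40%.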 The list shows a part of the results.

target: Probable G-protein coupled receptor 32 (Homo sapiens) (UniProt O75388); assay: qHTS for Agonists of Human Resolvin D1 Receptor DRV1; details: CHO-K1 GPR32 beta-arrestin PathHunter luminescence, 90 min; at 76.9 µM; active compounds read high; zero percent set by DMSO-only wells; note: 0% is about no effect
Procedure, shortened: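 Beta-arrestin recruitment read-out: luminescence from complemented beta-Gal in CHO-K1 GPR32 PathHunter cells, measured 1 h after detection reagent at ambient temperature following 90 min compound exposure at 37 °C; DMSO served as basal (EC0) control.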

Chain of UniProt O75388 (O75388 whole entry, looked up): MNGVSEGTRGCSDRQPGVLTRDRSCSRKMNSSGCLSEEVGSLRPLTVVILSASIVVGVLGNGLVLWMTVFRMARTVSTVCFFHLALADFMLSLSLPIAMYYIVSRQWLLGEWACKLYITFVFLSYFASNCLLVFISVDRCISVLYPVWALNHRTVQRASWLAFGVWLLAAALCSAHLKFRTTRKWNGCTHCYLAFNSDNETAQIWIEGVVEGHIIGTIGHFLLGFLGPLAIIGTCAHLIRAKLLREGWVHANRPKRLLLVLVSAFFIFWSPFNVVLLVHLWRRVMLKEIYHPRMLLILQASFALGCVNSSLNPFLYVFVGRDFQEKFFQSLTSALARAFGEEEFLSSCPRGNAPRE

activation, inactive:
COc1ccc(-c2nnc(SC(C)C(=O)O)o2)cc1 (configuration not stated) 21%, CSc1ccc(-c2nc3cccc(C)n3c2Nc2ccc3c(c2)OCO3)cc1 -19.4%, COc1ccc(N2C(=O)C(CC(=O)Nc3ccccc3)N(CCC3=CCCCC3)C2=O)cc1 (configuration not stated) 4.93%, CCCCNC(=O)CCc1c(C)nc2cc(-c3ccccc3)nn2c1C -3.78%, CC(=O)N1CCCc2cc(S(=O)(=O)N3CCCC(C(=O)NC(C)C)C3)ccc21 (configuration not stated) -2.15%, Cc1ccc(OCC(=O)Nc2c(C(=O)c3ccc(Cl)cc3)oc3ccccc23)cc1C -5.54%, CC(C)Oc1ccc(CNC(=O)c2sc3ncccc3c2-n2cccc2)cc1 -7.75%, CO[C@H]1C=CO[C@@]2(C)Oc3c(C)c(O)c4c(O)c(c(/C=N/N5CCN(C)CC5)c(O)c4c3C2=O)NC(=O)/C(C)=C\C=C[C@H](C)[C@H](O)[C@@H](C)[C@@H](O)[C@@H](C)[C@H](OC(C)=O)[C@@H]1C -81.2%, CCOc1ccc(C2c3c(oc4ccc(C)cc4c3=O)C(=O)N2CCCN(C)C)cc1OC (configuration not stated) -26.7%, Cc1cc(-c2ccc(S(=O)(=O)Nc3ccc(Cl)cc3)cc2)on1 2.49%, COc1ccc(-n2nc(C(=O)Nc3ccc(C(C)=O)cc3)nc2-c2ccccc2)cc1 -0.488%, Cc1ccccc1Nc1nc(N)c(C(=O)c2ccccc2Cl)s1 -32.2%, Cc1cc2oc(C(=O)N(Cc3ccc(N(C)C)cc3)Cc3ccco3)c(C)c2cc1Cl -28.8%, CCCCc1ccc(NC(=O)CSc2nc(=O)[nH]c3c2CCCC3)cc1 6.56%, O=C(CSc1nc2c([nH]c3ccccc32)c(=O)n1-c1ccccc1F)Nc1cccc(C(F)(F)F)c1 -11.6%, O=C1C(=O)N(C2CCN(C(=O)c3cccc(Cl)c3)CC2)CCN1Cc1ccc(F)cc1 -10.7%, CCOc1ccc(S(=O)(=O)N2CCN(Cc3nc4ccc(C)cc4o3)CC2)cc1 -7.05%, Cc1ccc(C)c(NC(=O)CSc2ccc3nc(-c4ccccc4)cn3n2)c1 -5.69%, CCOc1ccc(CCNC(=O)Cn2c(-c3cccs3)cc3ccccc32)cc1OCC -49.4%, O=C(Nc1cccc(C(=O)OCc2cc(=O)n3nc(C4CC4)sc3n2)c1)c1cccc(Cl)c1 -9.62%, COc1ccc(Nc2oc(/C=C/c3ccccc3OC)nc2C#N)cc1 8.36%, COC(=O)CCN(c1ccccc1)C(CNS(=O)(=O)c1ccccc1)c1ccccc1 (configuration not stated) -8.27%
